In the supplement of paper PMC9446081:
In all, about 39,000 compounds went through this assay and about 220 (0.56%) showed activity. The list shows a part of the results.
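Also: static incubation at 37 °C against the wild-type strain, values averaged over two biological replicates.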

The compounds below were run on Escherichia coli K-12 BW25113 (assay: relative growth (OD600 normalised to plate interquartile mean) (fraction); higher = less growth inhibition, active = 0.2 or less). Conditions: 50 µM; LB; incubation time: overnight (16-24 h).
In the case of `COC(=O)C1(C)CCCC2(C)c3ccc(C(C)C)cc3C(=O)CC12` (centres undefined), the relative growth is reported as inactive: 1.12. For `COc1ccc([Si](C)(C)[C@H]2[C@H](CC(=O)N3Cc4ccccc4C[C@H]3CO)O[C@@]3(C(=O)N(Cc4ccc(N5CCC5=O)cc4)c4ccccc43)[C@@H]2C)cc1`, the relative growth was inactive: 1.02. With `Cc1ccc(S(=O)(=O)N(C)C[C@@H]2Oc3c(NS(=O)(=O)c4cccs4)cccc3C(=O)N([C@H](C)CO)C[C@H]2C)cc1` the relative growth was inactive: 1.02. With `C[C@@H]1CN([C@H](C)CO)C(=O)c2cccc(NC(=O)NC3CCCCC3)c2O[C@@H]1CN(C)C(=O)Nc1cccc2ccccc12` the relative growth was inactive: 0.977. For `Cc1noc(C)c1NC(=O)N(C)C[C@H]1OCCCC[C@H](C)Oc2ccc(NC(=O)C3CCCCC3)cc2C(=O)N([C@H](C)CO)C[C@@H]1C`, the relative growth was inactive: 0.978. With `C=CCOC(=O)[C@@H]1[C@H]2C(=O)O[C@H](c3ccccc3)[C@H](c3ccccc3)N2[C@H](c2ccc(OCCOC(=O)[C@@H]3C[C@@H]4C(=O)N[C@@H](CCCC[N+](C)(C)C)C(=O)N4[C@@H]3c3cccc(OCCO)c3)cc2)[C@@]12C(=O)Nc1ccccc12` the relative growth was inactive: 0.994. `Cc1noc(C)c1NC(=O)N(C)C[C@@H]1Oc2ccc(NC(=O)Nc3cccc4ccccc34)cc2C(=O)N([C@H](C)CO)C[C@H]1C` was tested, and the relative growth was inactive: 1.02. With `COc1ccc(S(=O)(=O)N(C)C[C@H]2OCCCC[C@H](C)Oc3ccc(NC(=O)Nc4ccc(C(F)(F)F)cc4)cc3C(=O)N([C@@H](C)CO)C[C@@H]2C)cc1` the relative growth was inactive: 1.02. `C[C@@H]1CN([C@@H](C)CO)C(=O)c2cccc(NC(=O)Nc3ccccc3)c2O[C@H]1CN(C)Cc1ccc(Oc2ccccc2)cc1` was tested, and the relative growth was inactive: 0.961. `CN1C(=O)c2cc(NC(=O)c3cccs3)ccc2OC[C@@H]2O[C@H](CC(=O)NCC(F)(F)F)CC[C@H]21` was tested, and the relative growth was inactive: 0.975. In the case of `C[C@@H]1CN([C@@H](C)CO)C(=O)c2cc(NC(=O)CCCCCC(=O)Nc3ccccc3N)ccc2O[C@H]1CN(C)C(=O)Nc1cccc2ccccc12`, the relative growth is reported as inactive: 0.966. In the case of `C[C@H]1CN([C@@H](C)CO)C(=O)CCCn2cc(nn2)CO[C@@H]1CN(C)S(=O)(=O)c1ccc(C#N)cc1`, the relative growth is reported as inactive: 0.982. For `COc1ccc(-c2cnc3c(c2)C(=O)N([C@H](C)CO)C[C@@H](C)[C@@H](CN(C)C(=O)Cc2ccncc2)O3)cc1`, the relative growth was inactive: 1.04. In the case of `C[C@@H]1CCCCO[C@@H](CN(C)S(=O)(=O)c2cn(C)cn2)[C@H](C)CN([C@@H](C)CO)C(=O)c2cc(NC(=O)c3ccncc3)ccc2O1`, the relative growth is reported as inactive: 0.985.
